According to PubChem BioAssay AID485294 (National Center for Advancing Translational Sciences (NCATS), 2010):
The whole screen tested about 370,000 compounds, of which about 150 (0.041%) were called active. The shares of active, inactive and inconclusive entries below differ from those in the screen. Calls come from the whole dose curve; as a rule, active = well fitted inhibition curve with a large enough effect; inconclusive = small, poorly fitted or top-dose-only effect; inactive = flat fitted curve, though single readings scatter. No potency is given beside an inconclusive call; the fits are too rough.

molecular target: Beta-lactamase (Escherichia coli (strain K12)) (UniProt P00811); test: qHTS Inhibitors of AmpC Beta-Lactamase (assay with detergent); conditions: AmpC hydrolysis of nitrocefin, absorbance 480 nm, 0.01% Triton; activity change, negative = inhibition: at 114 µM (top of the series); note: nearly all actives have a fitted effect of over 25% in size;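 for activity change, negative = inhibition: 0% = no-compound wells and -100% = no-enzyme wells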
Summary of the method: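 20 mM phosphate pH 7.0 + 0.01% (detergent screen) or 0.0001% Triton X-100; 5.3 nM AmpC reagent; cpd preinc 15 min RT; nitrocefin (800 uM stock) to start; A480 q20 s × 4 min; Activity was normalised to no-enzyme and no-compound control wells.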
Potency is the fitted concentration of half-maximal effect; tags give direction and shape of the fitted curve.

Sequence of UniProt P00811 (P00811 whole entry, looked up): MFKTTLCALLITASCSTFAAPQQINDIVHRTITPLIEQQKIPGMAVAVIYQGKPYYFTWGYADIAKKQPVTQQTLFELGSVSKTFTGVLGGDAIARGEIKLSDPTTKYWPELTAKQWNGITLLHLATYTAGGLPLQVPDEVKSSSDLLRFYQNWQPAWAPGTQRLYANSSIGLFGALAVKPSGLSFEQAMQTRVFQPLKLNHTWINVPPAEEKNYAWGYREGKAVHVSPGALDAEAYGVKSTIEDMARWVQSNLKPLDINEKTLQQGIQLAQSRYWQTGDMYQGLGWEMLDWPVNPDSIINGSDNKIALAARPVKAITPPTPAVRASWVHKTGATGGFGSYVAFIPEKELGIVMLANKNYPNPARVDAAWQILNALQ

Row | Compound | Potency | activity change, negative = inhibition
1 | CCCN1CCN(CCCNC(=O)C2CCN(c3nnc(-n4cccc4)s3)CC2)CC1 | inconclusive [inhibitor, partial curve, poor fit] | 
2 | FCCCOc1ccc(-c2nccc(-c3ccc(F)cc3)n2)cc1 |  | inactive: 1.46%
3 | Cc1ccc(S(=O)(=O)c2cn(C)c3cc(N4CCOCC4)c(F)cc3c2=O)c(C)c1 |  | inactive: 19.8%
4 | Cc1ccc(S(=O)(=O)N(C)C)cc1NC(=O)c1cc(-c2ccco2)nc2ccccc12 |  | inactive: 4.03%
5 | CCCCn1c(N)c(N(CCOC)C(=O)c2cc(-c3ccccc3Cl)nc3ccccc23)c(=O)[nH]c1=O | inconclusive [inhibitor, partial curve, poor fit] | 
6 | CCCCOc1ccc(/C=C/C(=O)NCCc2nc3ccccc3[nH]2)cc1 | inconclusive [inhibitor, partial curve, poor fit] | 
7 | O=C(Nc1cccc(C(=O)Nc2ccccc2F)c1)c1ccccc1 | inconclusive [inhibitor, partial curve, poor fit] | 
8 | O=[N+]([O-])c1ccc(-n2nncc2-c2ccccc2)cc1 | inconclusive [inhibitor, full curve] | 
9 | O=C(NCCN1CCCCC1)Nc1ccccc1Cl | inconclusive [inhibitor, full curve, poor fit] | 
10 | COc1ccc(NC(=O)NS(=O)(=O)c2ccc(C)cc2)c(OC)c1 | inconclusive [inhibitor, full curve] | 
11 | CCCNC(=O)C1CNc2ccccc2O1 (stereo not drawn) | inconclusive [inhibitor, full curve, poor fit] | 
12 | Nc1ncnc(Nc2ccccc2C(F)(F)F)n1 | inconclusive [inhibitor, full curve, poor fit] | 
13 | O=C(NCc1ccccc1)C1=C[C@H](c2coc3ccccc3c2=O)C[C@H](OCCCCO)O1 |  | inactive: 7.87%
14 | Cc1occc(=O)c1OC(=O)Nc1ccc(Cl)c(Cl)c1 | inconclusive [inhibitor, full curve, poor fit] | 
15 | CCOc1cccc2sc(N(Cc3cccnc3)C(=O)C3CCCCC3)nc12 |  | inactive: 3.07%
16 | Cc1ccc(NC(=O)CCn2c(=O)oc3ccccc32)cc1 | inconclusive [inhibitor, full curve, poor fit] | 
17 | COc1ccc(C(=O)OCC(=O)Nc2ccc(OC)c(S(=O)(=O)N3CCCCC3)c2)cc1[N+](=O)[O-] | inconclusive [inhibitor, partial curve] | 
18 | COc1cc2nc(CN3CCN(C(c4ccccc4)c4ccccc4)CC3)[nH]c(=O)c2cc1OC |  | inactive: -6.35%
